# Assay results as given in the supplement of paper PMC11876631.
# ± gives the standard deviation of the averaged measurements. Laboratory Escherichia coli strains with one amino-acid change in an essential protein, pooled on minimal glucose agar with carbenicillin or gentamicin at twice the control MIC (plus kanamycin and chloramphenicol for the plasmids), 48 h. Fold change of barcode share against drug-free plates; higher = less susceptible. Active = above 20 in both replicates (the paper's putatively resistant). '<' = one read or none on drug, '>' = one read or none on a drug-free plate. Shares are relative, so most strains fall below 1 when a few take over. Listed are strains with at least 15 reads on both drug-free plates, and hits; most hits rest on fewer reference reads. Replicate rank correlation about 0.5. Edits are read from barcodes.
# Molecular target: Escherichia coli (laboratory strain)
# Assay: barcode share on antibiotic plates over drug-free plates; higher = less susceptible
# Procedure: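 A pool of E. coli strains, each edited to carry one amino-acid change in an essential protein, was grown for 48 h on minimal glucose agar with or without antibiotic; strain barcodes were sequenced; mean of two replicates.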
# [1] = antibiotic: carbenicillin, 2× MIC (3.1 µg/mL)
# [2] = antibiotic: gentamicin, 2× MIC (MIC 0.45 µg/mL)
Protein,fold change of barcode share [1],fold change of barcode share [2]
fabZ F23Q (protein) MTTNTHTLQIEEILELLPHRFPQLLVDRVLDFEEGRFLRAVKNVSVNEPFFQGHFPGKPIFPGVLILEAMAQATGILAFKSVGKLEPGELYYFAGIDEARFKRPVVPGDQMIMEVTFEKTRRGLTRFKGVALVDGKVVCEATMMCARSREA,1.57 ± 1.9,< 0.0147
argA V399Q (protein) MVKERKTELVEGFRHSVPYINTHRGKTFVIMLGGEAIEHENFSSIVNDIGLLHSLGIRLVVVYGARPQIDANLAAHHHEPLYHKNIRVTDAKTLELVKQAAGTLQLDITARLSMSLNNTPLQGAHINVVSGNFIIAQPLGVDDGVDYCHSGRIRRIDEDAIHRQLDSGAIVLMGPVAVSVTGESFNLTSEEIATQLAIKLKAEKMIGFCSSQGVTNDDGDIVSELFPNEAQARVEAQEEKGDYNSGTVRFLRGAVKACRSGVRRCHLISYQEDGALLQELFSRDGIGTQIVMESAEQIRRATINDIGGILELIRPLEQQGILVRRSREQLEMEIDKFTIIQRDNTTIACAALYPFPEEKIGEMACVAVHPDYRSSSRGEVLLERIAAQAKQSGLSKLFQLTTRSIHWFQERGFTPVDIDLLPESKKQLYNYQRKSKVLMADLG,0.413 ± 0.18,
fabZ M144A (protein) MTTNTHTLQIEEILELLPHRFPFLLVDRVLDFEEGRFLRAVKNVSVNEPFFQGHFPGKPIFPGVLILEAMAQATGILAFKSVGKLEPGELYYFAGIDEARFKRPVVPGDQMIMEVTFEKTRRGLTRFKGVALVDGKVVCEATMACARSREA,0.374 ± 0.018,< 0.0156
fabZ M144W (protein) MTTNTHTLQIEEILELLPHRFPFLLVDRVLDFEEGRFLRAVKNVSVNEPFFQGHFPGKPIFPGVLILEAMAQATGILAFKSVGKLEPGELYYFAGIDEARFKRPVVPGDQMIMEVTFEKTRRGLTRFKGVALVDGKVVCEATMWCARSREA,0.683 ± 0.34,0.00603 ± 0.003
fabZ M144Q (protein) MTTNTHTLQIEEILELLPHRFPFLLVDRVLDFEEGRFLRAVKNVSVNEPFFQGHFPGKPIFPGVLILEAMAQATGILAFKSVGKLEPGELYYFAGIDEARFKRPVVPGDQMIMEVTFEKTRRGLTRFKGVALVDGKVVCEATMQCARSREA,0.2755 ± 0.0011,0.0125 ± 0.0069
fabZ M144P (protein) MTTNTHTLQIEEILELLPHRFPFLLVDRVLDFEEGRFLRAVKNVSVNEPFFQGHFPGKPIFPGVLILEAMAQATGILAFKSVGKLEPGELYYFAGIDEARFKRPVVPGDQMIMEVTFEKTRRGLTRFKGVALVDGKVVCEATMPCARSREA,0.324 ± 0.095,< 0.0141
fabZ V26A (protein) MTTNTHTLQIEEILELLPHRFPFLLADRVLDFEEGRFLRAVKNVSVNEPFFQGHFPGKPIFPGVLILEAMAQATGILAFKSVGKLEPGELYYFAGIDEARFKRPVVPGDQMIMEVTFEKTRRGLTRFKGVALVDGKVVCEATMMCARSREA,0.488 ± 0.43,0.00759 ± 0.0039
fabZ L67A (protein) MTTNTHTLQIEEILELLPHRFPFLLVDRVLDFEEGRFLRAVKNVSVNEPFFQGHFPGKPIFPGVLIAEAMAQATGILAFKSVGKLEPGELYYFAGIDEARFKRPVVPGDQMIMEVTFEKTRRGLTRFKGVALVDGKVVCEATMMCARSREA,0.631 ± 0.19,0.00718 ± 0.0044
fabZ M113A (protein) MTTNTHTLQIEEILELLPHRFPFLLVDRVLDFEEGRFLRAVKNVSVNEPFFQGHFPGKPIFPGVLILEAMAQATGILAFKSVGKLEPGELYYFAGIDEARFKRPVVPGDQMIAEVTFEKTRRGLTRFKGVALVDGKVVCEATMMCARSREA,0.397 ± 0.17,0.012 ± 0.011
argA V399P (protein) MVKERKTELVEGFRHSVPYINTHRGKTFVIMLGGEAIEHENFSSIVNDIGLLHSLGIRLVVVYGARPQIDANLAAHHHEPLYHKNIRVTDAKTLELVKQAAGTLQLDITARLSMSLNNTPLQGAHINVVSGNFIIAQPLGVDDGVDYCHSGRIRRIDEDAIHRQLDSGAIVLMGPVAVSVTGESFNLTSEEIATQLAIKLKAEKMIGFCSSQGVTNDDGDIVSELFPNEAQARVEAQEEKGDYNSGTVRFLRGAVKACRSGVRRCHLISYQEDGALLQELFSRDGIGTQIVMESAEQIRRATINDIGGILELIRPLEQQGILVRRSREQLEMEIDKFTIIQRDNTTIACAALYPFPEEKIGEMACVAVHPDYRSSSRGEVLLERIAAQAKQSGLSKLFPLTTRSIHWFQERGFTPVDIDLLPESKKQLYNYQRKSKVLMADLG,0.37 ± 0.17,
fbaA V105A (protein) MSKIFDFVKPGVITGDDVQKVFQVAKENNFALPAVNCVGTDSINAVLETAAKVKAPVIVQFSNGGASFIAGKGVKSDVPQGAAILGAISGAHHVHQMAEHYGVPAILHTDHCAKKLLPWIDGLLDAGEKHFAATGKPLFSSHMIDLSEESLQENIEICSKYLERMSKIGMTLEIELGCTGGEEDGVDNSHMDASALYTQPEDVDYAYTELSKISPRFTIAASFGNVHGVYKPGNVVLTPTILRDSQEYVSKKHNLPHNSLNFVFHGGSGSTAQEIKDSVSYGVVKMNIDTDTQWATWEGVLNYYKANEAYLQGQLGNPKGEDQPNKKYYDPRVWLRAGQTSMIARLEKAFQELNAIDVL,0.207 ± 0.1,0.194 ± 0.27
argA L172A (protein) MVKERKTELVEGFRHSVPYINTHRGKTFVIMLGGEAIEHENFSSIVNDIGLLHSLGIRLVVVYGARPQIDANLAAHHHEPLYHKNIRVTDAKTLELVKQAAGTLQLDITARLSMSLNNTPLQGAHINVVSGNFIIAQPLGVDDGVDYCHSGRIRRIDEDAIHRQLDSGAIVAMGPVAVSVTGESFNLTSEEIATQLAIKLKAEKMIGFCSSQGVTNDDGDIVSELFPNEAQARVEAQEEKGDYNSGTVRFLRGAVKACRSGVRRCHLISYQEDGALLQELFSRDGIGTQIVMESAEQIRRATINDIGGILELIRPLEQQGILVRRSREQLEMEIDKFTIIQRDNTTIACAALYPFPEEKIGEMACVAVHPDYRSSSRGEVLLERIAAQAKQSGLSKLFVLTTRSIHWFQERGFTPVDIDLLPESKKQLYNYQRKSKVLMADLG,0.682 ± 0.34,0.0135 ± 0.0054
fbaA I106Q (protein) MSKIFDFVKPGVITGDDVQKVFQVAKENNFALPAVNCVGTDSINAVLETAAKVKAPVIVQFSNGGASFIAGKGVKSDVPQGAAILGAISGAHHVHQMAEHYGVPVQLHTDHCAKKLLPWIDGLLDAGEKHFAATGKPLFSSHMIDLSEESLQENIEICSKYLERMSKIGMTLEIELGCTGGEEDGVDNSHMDASALYTQPEDVDYAYTELSKISPRFTIAASFGNVHGVYKPGNVVLTPTILRDSQEYVSKKHNLPHNSLNFVFHGGSGSTAQEIKDSVSYGVVKMNIDTDTQWATWEGVLNYYKANEAYLQGQLGNPKGEDQPNKKYYDPRVWLRAGQTSMIARLEKAFQELNAIDVL,0.484 ± 0.032,
fbaA L335A (protein) MSKIFDFVKPGVITGDDVQKVFQVAKENNFALPAVNCVGTDSINAVLETAAKVKAPVIVQFSNGGASFIAGKGVKSDVPQGAAILGAISGAHHVHQMAEHYGVPVILHTDHCAKKLLPWIDGLLDAGEKHFAATGKPLFSSHMIDLSEESLQENIEICSKYLERMSKIGMTLEIELGCTGGEEDGVDNSHMDASALYTQPEDVDYAYTELSKISPRFTIAASFGNVHGVYKPGNVVLTPTILRDSQEYVSKKHNLPHNSLNFVFHGGSGSTAQEIKDSVSYGVVKMNIDTDTQWATWEGVLNYYKANEAYLQGQLGNPKGEDQPNKKYYDPRVWARAGQTSMIARLEKAFQELNAIDVL,0.273 ± 0.033,0.524 ± 0.72
fbaA L335W (protein) MSKIFDFVKPGVITGDDVQKVFQVAKENNFALPAVNCVGTDSINAVLETAAKVKAPVIVQFSNGGASFIAGKGVKSDVPQGAAILGAISGAHHVHQMAEHYGVPVILHTDHCAKKLLPWIDGLLDAGEKHFAATGKPLFSSHMIDLSEESLQENIEICSKYLERMSKIGMTLEIELGCTGGEEDGVDNSHMDASALYTQPEDVDYAYTELSKISPRFTIAASFGNVHGVYKPGNVVLTPTILRDSQEYVSKKHNLPHNSLNFVFHGGSGSTAQEIKDSVSYGVVKMNIDTDTQWATWEGVLNYYKANEAYLQGQLGNPKGEDQPNKKYYDPRVWWRAGQTSMIARLEKAFQELNAIDVL,0.266 ± 0.12,0.238 ± 0.32
fbaA L335Q (protein) MSKIFDFVKPGVITGDDVQKVFQVAKENNFALPAVNCVGTDSINAVLETAAKVKAPVIVQFSNGGASFIAGKGVKSDVPQGAAILGAISGAHHVHQMAEHYGVPVILHTDHCAKKLLPWIDGLLDAGEKHFAATGKPLFSSHMIDLSEESLQENIEICSKYLERMSKIGMTLEIELGCTGGEEDGVDNSHMDASALYTQPEDVDYAYTELSKISPRFTIAASFGNVHGVYKPGNVVLTPTILRDSQEYVSKKHNLPHNSLNFVFHGGSGSTAQEIKDSVSYGVVKMNIDTDTQWATWEGVLNYYKANEAYLQGQLGNPKGEDQPNKKYYDPRVWQRAGQTSMIARLEKAFQELNAIDVL,0.762 ± 0.3,< 0.00697
